Residue numbers refer to the chain shown, from its start. This is one part of the list.

T1: RBFOX1 RRM RbFoxmut (Fox-RRM*) (Homo sapiens, UniProt Q9NWB1 109-208, R118D;E147R;N151S;E152T)
T1 sequence: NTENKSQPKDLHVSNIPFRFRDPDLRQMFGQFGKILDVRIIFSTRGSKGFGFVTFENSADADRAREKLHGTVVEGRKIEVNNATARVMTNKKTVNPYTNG

B1: CAUGUAA (DNA:RNA)
RNA: GGGAGACCGGAAUUCAGAUUGUCCCAUGUAAUUAAAUCCCGUCGUAGCCACCA
DNA 1: CAATCTGAATTCCGGTCTCCC
DNA 2: TGGTGGCTACGACGGGATT
B2: GCUAAAC (DNA:RNA)
RNA: B1 RNA with C25G, A26C, G28A, U29A, A31C
DNA 1: CAATCTGAATTCCGGTCTCCC
DNA 2: TGGTGGCTACGACGGGATT
B3: CUCACAG (DNA:RNA)
RNA: B1 RNA with A26U, U27C, G28A, U29C, A31G
DNA 1: CAATCTGAATTCCGGTCTCCC
DNA 2: TGGTGGCTACGACGGGATT
B4: AGGAGUC (DNA:RNA)
RNA: GGGAGACCGGAAUUCAGAUUGUCCAGGAGUCUUAAAUCCCGUCGUAGCCACCA
DNA 1: CAATCTGAATTCCGGTCTCCC
DNA 2: TGGTGGCTACGACGGGATT
B5: UACGGAA (DNA:RNA)
RNA: B1 RNA with C25U, U27C, U29G
DNA 1: CAATCTGAATTCCGGTCTCCC
DNA 2: TGGTGGCTACGACGGGATT
B6: CCCUUAU (DNA:RNA)
RNA: B1 RNA with A26C, U27C, G28U, A31U
DNA 1: CAATCTGAATTCCGGTCTCCC
DNA 2: TGGTGGCTACGACGGGATT
B7: CUGACCU (DNA:RNA)
RNA: B4 RNA with A25C, G26U, G29C, U30C, C31U
DNA 1: CAATCTGAATTCCGGTCTCCC
DNA 2: TGGTGGCTACGACGGGATT
B8: AAUCACG (DNA:RNA)
RNA: B1 RNA with C25A, G28C, U29A, A30C, A31G
DNA 1: CAATCTGAATTCCGGTCTCCC
DNA 2: TGGTGGCTACGACGGGATT
B9: UACCCCC (DNA:RNA)
RNA: B4 RNA with A25U, G26A, G27C, A28C, G29C, U30C
DNA 1: CAATCTGAATTCCGGTCTCCC
DNA 2: TGGTGGCTACGACGGGATT
B10: UACCUCC (DNA:RNA)
RNA: B1 RNA with C25U, U27C, G28C, A30C, A31C
DNA 1: CAATCTGAATTCCGGTCTCCC
DNA 2: TGGTGGCTACGACGGGATT
B11: UCAUCUG (DNA:RNA)
RNA: B4 RNA with A25U, G26C, G27A, A28U, G29C, C31G
DNA 1: CAATCTGAATTCCGGTCTCCC
DNA 2: TGGTGGCTACGACGGGATT
B12: CGUAUAG (DNA:RNA)
RNA: B1 RNA with A26G, G28A, A31G
DNA 1: CAATCTGAATTCCGGTCTCCC
DNA 2: TGGTGGCTACGACGGGATT
B13: CGCAUUA (DNA:RNA)
RNA: B4 RNA with A25C, G27C, G29U, C31A
DNA 1: CAATCTGAATTCCGGTCTCCC
DNA 2: TGGTGGCTACGACGGGATT
B14: UGUGUUU (DNA:RNA)
RNA: B1 RNA with C25U, A26G, A30U, A31U
DNA 1: CAATCTGAATTCCGGTCTCCC
DNA 2: TGGTGGCTACGACGGGATT
B15: AAUGGCA (DNA:RNA)
RNA: B1 RNA with C25A, U29G, A30C
DNA 1: CAATCTGAATTCCGGTCTCCC
DNA 2: TGGTGGCTACGACGGGATT
B16: UACGGGG (DNA:RNA)
RNA: B1 RNA with C25U, U27C, U29G, A30G, A31G
DNA 1: CAATCTGAATTCCGGTCTCCC
DNA 2: TGGTGGCTACGACGGGATT
B17: UACAGAU (DNA:RNA)
RNA: B4 RNA with A25U, G26A, G27C, U30A, C31U
DNA 1: CAATCTGAATTCCGGTCTCCC
DNA 2: TGGTGGCTACGACGGGATT
B18: ACAAUUA (DNA:RNA)
RNA: B4 RNA with G26C, G27A, G29U, C31A
DNA 1: CAATCTGAATTCCGGTCTCCC
DNA 2: TGGTGGCTACGACGGGATT
B19: UUACGUU (DNA:RNA)
RNA: B4 RNA with A25U, G26U, G27A, A28C, C31U
DNA 1: CAATCTGAATTCCGGTCTCCC
DNA 2: TGGTGGCTACGACGGGATT
B20: CACCGGA (DNA:RNA)
RNA: B1 RNA with U27C, G28C, U29G, A30G
DNA 1: CAATCTGAATTCCGGTCTCCC
DNA 2: TGGTGGCTACGACGGGATT
B21: CGAGCGG (DNA:RNA)
RNA: B1 RNA with A26G, U27A, U29C, A30G, A31G
DNA 1: CAATCTGAATTCCGGTCTCCC
DNA 2: TGGTGGCTACGACGGGATT
B22: UGUGCUG (DNA:RNA)
RNA: B4 RNA with A25U, G27U, A28G, G29C, C31G
DNA 1: CAATCTGAATTCCGGTCTCCC
DNA 2: TGGTGGCTACGACGGGATT
B23: CGGUUCA (DNA:RNA)
RNA: B1 RNA with A26G, U27G, G28U, A30C
DNA 1: CAATCTGAATTCCGGTCTCCC
DNA 2: TGGTGGCTACGACGGGATT
B24: GAUUCGU (DNA:RNA)
RNA: B1 RNA with C25G, G28U, U29C, A30G, A31U
DNA 1: CAATCTGAATTCCGGTCTCCC
DNA 2: TGGTGGCTACGACGGGATT
B25: GUUGUUG (DNA:RNA)
RNA: B1 RNA with C25G, A26U, A30U, A31G
DNA 1: CAATCTGAATTCCGGTCTCCC
DNA 2: TGGTGGCTACGACGGGATT
B26: CCGCGCU (DNA:RNA)
RNA: B4 RNA with A25C, G26C, A28C, U30C, C31U
DNA 1: CAATCTGAATTCCGGTCTCCC
DNA 2: TGGTGGCTACGACGGGATT
B27: GGCUGAG (DNA:RNA)
RNA: B4 RNA with A25G, G27C, A28U, U30A, C31G
DNA 1: CAATCTGAATTCCGGTCTCCC
DNA 2: TGGTGGCTACGACGGGATT
B28: ACCUUCA (DNA:RNA)
RNA: B1 RNA with C25A, A26C, U27C, G28U, A30C
DNA 1: CAATCTGAATTCCGGTCTCCC
DNA 2: TGGTGGCTACGACGGGATT
B29: AAGGUCC (DNA:RNA)
RNA: B4 RNA with G26A, A28G, G29U, U30C
DNA 1: CAATCTGAATTCCGGTCTCCC
DNA 2: TGGTGGCTACGACGGGATT
B30: ACACGAG (DNA:RNA)
RNA: B4 RNA with G26C, G27A, A28C, U30A, C31G
DNA 1: CAATCTGAATTCCGGTCTCCC
DNA 2: TGGTGGCTACGACGGGATT
B31: AGGAGCA (DNA:RNA)
RNA: B4 RNA with U30C, C31A
DNA 1: CAATCTGAATTCCGGTCTCCC
DNA 2: TGGTGGCTACGACGGGATT

In the assay the target is T1, RBFOX1 RRM RbFoxmut (Fox-RRM*). Put plainly: EMSA; HiTS-Eq, 1 nM pool, 10 min; buffer printed only for the single-RNA assays: 10 mM Tris pH 7.5, 150 mM NaCl, 3.4 mM EDTA, 0.001% NP-40, 30 C. As to conditions: tags: His6 N-terminal (pET28a); label: 5' 32P. In a few lines:
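These values rest on relative association constants, computed from read-count changes of each RNA species versus the control reaction and normalised to the cognate motif. Reads came from free RNA recovered by 8% native PAGE after purified RbFox RRM (wild type or mutant) at increasing concentrations was equilibrated for 10 min in 50 µL with 1 nM of a 5′-radiolabelled pool with 7 randomized nucleotides and DNA-annealed flanks.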
On the technique in general: In EMSA bound probe runs differently from free probe, usually more slowly.
B1: the binding signal is 0.147 KA relative to UGCAUGU. On to B2, for which the binding signal is 0.0819 KA relative to UGCAUGU. As for B3, the binding signal was 0.0993 KA relative to UGCAUGU. Regarding B4, the binding signal is 0.093 KA relative to UGCAUGU.

Turning to B5, the binding signal was 0.0942 KA relative to UGCAUGU. The result for B6 reads 0.0902 KA relative to UGCAUGU; that for B7, 0.0588 KA relative to UGCAUGU; that for B8, 0.0798 KA relative to UGCAUGU.

Consider B9, for which the binding signal was 0.0928 KA relative to UGCAUGU. For the molecule B10, the binding signal is 0.0299 KA relative to UGCAUGU. B11: the binding signal is 0.0789 KA relative to UGCAUGU. With B12, the binding signal was 0.13 KA relative to UGCAUGU. For the molecule B13, the binding signal was 0.14 KA relative to UGCAUGU. For the molecule B14, the binding signal was 0.115 KA relative to UGCAUGU.

For B15, the binding signal is 0.126 KA relative to UGCAUGU. Turning to B16, the binding signal is 0.0585 KA relative to UGCAUGU. On to B17, for which the binding signal was 0.063 KA relative to UGCAUGU. With B18, the binding signal is 0.0959 KA relative to UGCAUGU. In the case of B19, the binding signal was 0.122 KA relative to UGCAUGU.

As for B20, the binding signal is 0.0666 KA relative to UGCAUGU. As for B21, the binding signal is 0.0942 KA relative to UGCAUGU. The result for B22 reads 0.178 KA relative to UGCAUGU; that for B23, 0.112 KA relative to UGCAUGU.

In the case of B24, the binding signal is 0.134 KA relative to UGCAUGU. Take B25: the binding signal was 0.15 KA relative to UGCAUGU. The result for B26 reads 0.111 KA relative to UGCAUGU; that for B27, 0.143 KA relative to UGCAUGU. The result for B28 reads 0.0895 KA relative to UGCAUGU; that for B29, 0.0688 KA relative to UGCAUGU. For B30, the binding signal is 0.131 KA relative to UGCAUGU. As for B31, the binding signal is 0.136 KA relative to UGCAUGU.

Values taken from PMC9911399, “Two distinct binding modes provide the RNA-binding protein RbFox with extraordinary sequence specificity”.
